Measured values as given in the GPR68 mutational scans of Howard et al. (2025).

B1: GPR68, Q15743 (parent)
chain: MGNITADNSSMSCTIDHTIHQTLAPVVYVTVLVVGFPANCLSLYFGYLQIKARNELGVYLCNLTVADLFYICSLPFWLQYVLQHDNWSHGDLSCQVCGILLYENIYISVGFLCCISVDRYLAVAHPFRFHQFRTLKAAVGVSVVIWAKELLTSIYFLMHEEVIEDENQHRVCFEHYPIQAWQRAINYYRFLVGFLFPICLLLASYQGILRAVRRSHGTQKSRKDQIQRLVLSTVVIFLACFLPYHVLLLVRSVWEASCDFAKGVFNAYHFSLLLTSFNCVADPVLYCFVSETTHRDLARLRGACLAFLTCSRTGRAREAYPLGAPEASGKSGAQGEEPELLTKLHPAFQTPNSPGSGGFPTGRLA

How the values were obtained:
[1] = variants of: B1; assay: cAMP reporter score (Enrich2 score, wild type = 0); higher = more signal; HEK293T, FACS bins
[2] = variants of: B1; assay: surface expression score (Enrich2 score, wild type = 0); higher = more signal; HEK293T, FACS bins

| Variant | cAMP reporter score ([1]; pH 5.5) | cAMP reporter score ([1]; pH 6, modulator: ogerin) | cAMP reporter score ([1]; pH 6.5, modulator: ogerin) | surface expression score [2] | cAMP reporter score ([1]; pH 6) |
| --- | --- | --- | --- | --- | --- |
| V253T | 0.33 | 1.28 | 0.545 | 0.293 |  |
| V253C | 1.99 | -0.52 | -0.011 | -0.391 | -0.01 |
| V253Q | -0.238 | 0.14 | -1.73 | 0.222 |  |
| V253_W254insGS | -1.24 | -1.68 | -1.6 | 0.362 | -1.57 |
| W254_E255insGS | -1.2 | -1.45 | -1.29 | 0.969 | -0.867 |
| W254del | -0.309 |  | -0.728 | -2.03 | -0.604 |
| E255del | -1.1 | -1.85 | -0.38 | 0.81 | -0.446 |
| V253_W254insGSG | -0.775 | -0.65 | 0.318 | 2.07 |  |
| W254L | 0.2 | 0.29 | -0.733 | -0.536 | -0.111 |
| W254R | 0.185 | 0.155 | -0.299 | -0.542 | -0.514 |
| W254S | 0.772 | 1.19 | -0.289 | -0.228 | -0.536 |
| W254G | -0.789 |  |  |  | -0.425 |
| W254E | -0.464 | -2.15 | -0.572 | 0.157 | -2.65 |
| W254C | 1.17 | 0.783 | -0.473 | -1.52 | -0.061 |
| W254H | 2.14 | 1.43 | 0.784 | 0.676 | -0.012 |
| W254K | 0.085 |  | -0.647 | -0.537 | -0.477 |
| W254P | -1.17 | -1.06 | -1.57 | -0.595 | -0.453 |
| W254Y | -0.76 | -0.219 | -0.762 |  | -0.986 |
| W254A | 0.045 | -0.193 | -0.368 | -0.709 | -0.615 |
| W254M | -0.469 | -0.33 | -0.333 | -0.526 |  |
| W254F | 0.159 | 0.355 |  | 0.285 |  |

| Variant | cAMP reporter score ([1]; pH 5.5) | cAMP reporter score ([1]; pH 6, modulator: ogerin) | cAMP reporter score ([1]; pH 6.5, modulator: ogerin) | surface expression score [2] | cAMP reporter score ([1]; pH 6) |
| --- | --- | --- | --- | --- | --- |
| W254D | -0.297 | -1.26 | -1.08 | -1.81 | -1.26 |
| W254Q | 0.885 | 1.19 | 0.644 | -0.221 | 0.203 |
| W254I | -0.11 | -0.489 | -0.77 | -0.025 |  |
| W254V | 0.309 | 0.177 | -0.004 | -0.419 | -0.256 |
| W254N | 0.339 | -0.044 | -0.212 | 0.157 | -0.348 |
| S252_V253insGS | -1.71 | -2.37 | -1.13 | -1.43 | -0.299 |
| V246_L247del | -0.078 | -1.04 | -0.116 | -2.24 | -0.466 |
| V246T | 0.472 | 0.908 | -0.342 | -0.917 | 0.152 |
| V246Y | -1.58 | -1.1 | -1.66 | -2.68 | -1.19 |
| V246W | -1.62 | -2.43 | 0.071 | -1.91 | -0.651 |
| V246S | 0.089 | 0.188 | 0.133 | -0.806 | -0.197 |
| V246_L248del | -1.57 | -1.29 | -1.15 | -2.6 | -1.16 |
| A256_S257insG | 0.682 | 0.126 | -0.744 | 2.09 | -0.509 |
| L248G | -1.3 | -1.06 | -0.359 | -1.88 | -0.39 |
| L248R | -1.64 | -1.74 | -1.11 | -2.27 | -0.717 |
| L248H | -0.788 | -1.4 | -1.69 | -0.885 | -0.262 |
| L248Q | 1.05 | 0.397 | -0.383 |  | -0.385 |
| L248M | 0.163 | 0.02 | -0.074 | -0.255 | 0.422 |
| L248P | -1.85 | -2.74 | -1.74 | -2.57 | -1.69 |
| L248T | -1.28 | -1.29 | -1.57 | -1.5 | -0.79 |
| L248V | -0.304 | -0.077 | -0.984 | -0.687 | -1.39 |

| Variant | cAMP reporter score ([1]; pH 5.5) | cAMP reporter score ([1]; pH 6, modulator: ogerin) | cAMP reporter score ([1]; pH 6.5, modulator: ogerin) | surface expression score [2] | cAMP reporter score ([1]; pH 6) |
| --- | --- | --- | --- | --- | --- |
| L248C | 0.42 | 0.453 | -0.238 | 0.46 | -0.268 |
| L248K | -0.57 | -1.6 | -1.15 | -2.04 | -0.447 |
| L248D | -1.07 | -0.886 | -0.883 | -2.46 | -1.22 |
| L248Y | -0.863 | -0.92 | -0.591 | -2.09 | -0.596 |
| L248N | 0.587 | -0.483 | -0.05 | 0.173 | -0.119 |
| L248S | -0.016 | -0.991 | -0.878 | 0.619 | -0.811 |
| L248E | -2.17 | -1.01 | -0.492 | -0.747 | -1.44 |
| L248A | -0.45 | -0.725 | -0.751 | -0.359 | -0.033 |
| L248W | -0.942 | -1.5 | -1.31 | -1.65 | -0.418 |
| L248I | 0.94 | 0.722 | 1.23 | 0.215 | 1.52 |
| A256_S257del | -0.69 | -1.3 | -0.395 | -1.29 | -0.52 |
| L249del | -0.43 | -0.7 |  | -0.411 |  |
| L248_L249insGSG | -0.65 | -2.24 | -1.53 | -1.62 | -0.132 |
| W254_E255insG | -0.664 | -0.627 | -0.026 | 3.1 | -0.392 |
| W254_E255insGSG | -0.63 | -2 | -0.704 | 1.72 | -1.02 |
| S252_V253insGSG | -1.59 | -0.993 | -0.687 | -1.05 | -1.25 |
| R251_S252insGSG | -1.44 | -2.39 | -1.32 | -1.92 | -1.16 |
| R251_S252del | -1.6 | -1.99 | -1.17 | -2.21 | -1.2 |
| S252_W254del | -1.4 | -1.52 | -0.807 | -2.71 | -0.478 |
| V246_L247insGS | -1.02 | -2 | -1.26 | -2.12 | -1.7 |
| E255_A256insGSG | 0.179 | 0.098 | -0.809 | 1.84 | -0.619 |

Scores with a large standard error are left out. The source holds two more conditions with little spread; they are left out. Read del as a deletion of the residues named and ins as an insertion between two positions. For some assays here: How much ogerin was present is not stated here.
